The text below walks through data of patent publication US20050203135A1, “Antagonists for treatment of CD/11CD18 adhesion receptor mediated disorders” (Genentech, Inc., priority 1998, published 2005).

Where two headings read alike, the source gives them in different places.

Assay [1] has as its target T1, CD11a/CD18-ICAM-1 interaction (recombinant human LFA-1 / human 5 domain ICAM-Ig) (Homo sapiens, UniProt P05107+P20701). The following applies: PLM2(μM), PLM2 antibody capture format of LFA/ICAM assay.
Assay [2] addresses T1, CD11a/CD18-ICAM-1 interaction (recombinant human LFA-1 / human 5 domain ICAM-Ig). Nature of the assay: Forward format LFA-1:ICAM-1 assay (PPFF), protein/protein receptor binding. Further details: containing the full-length cDNAs for the aL (CD11a) and b2 (CD18) subunits; made in house. Particulars: forward format of LFA/ICAM assay. The source says: Forward Format LFA-1:ICAM-1 Assay (PPFF):

In general, IC50 refers to the concentration that gives 50% inhibition.

As to `C=CCOC(=O)NCC[C@H](NC(=O)c1ccc(C(=O)NCc2cccc(O)c2)cc1Cl)C(=O)O` [Example 351], the concentration for half-maximal inhibition (IC50) in assay [1] came out at 0.032 µM; in assay [2] it was 67 nM.

As to `CC(=O)NCCCC[C@H](NC(=O)c1ccc(C(=O)NCc2cccc(O)c2)cc1Cl)C(=O)O` [Example 348], the results for the IC50 in assay [1] and in assay [2] were 0.023 µM and 90 nM, respectively.

`CC(NC(=O)c1ccccc1)c1ccc(C(=O)N[C@@H](CC(N)=O)C(=O)O)c(Cl)c1` (stereo partly drawn) [Example 371]: the half-maximal inhibitory concentration (IC50) in assay [1] was found to be 0.037 µM; in assay [2], 55 nM.

With `Cc1cc(CNC(=O)c2cccc(O)c2)cc(C)c1C(=O)N[C@@H](C)C(=O)O` [Example 284], the IC50 in assay [1] worked out at 0.079 µM; in assay [2], 93 nM.

For `CC(NC(=O)c1ccc(C(=O)N[C@@H](CC(N)=O)C(=O)O)c(Cl)c1)c1cccc(O)c1` (stereo partly drawn) [Example 363], the figures for the IC50 in assay [1] and in assay [2] were 0.01 µM and 14 nM, respectively.

Consider `NC(=O)C[C@H](NC(=O)c1ccc(C(=O)NCc2cccc(O)c2)cc1Cl)C(=O)O` [Example 345], for which the IC50 in assay [1] was found to be 0.004 µM; in assay [2], 19 nM.
